Reference: the supplement of paper PMC8728848
Some of the results follow.

Experiments:
Experiment in all cases: glycan array binding signal (z-score within array); higher = stronger binding
Conditions in all cases: glycan notation: IUPAC condensed, linker removed
[1] = target: GlcNAc(a1-6)Gal(b1-4)GlcNAc
Summary of the method: (§1)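 The binding signal is a Z-score computed within each array. Data were drawn from 3228 arrays in the Consortium for Functional Glycomics database, restricted to those with a known protein sequence. Scores were averaged over arrays of the same protein sequence at different concentrations or buffers, and over linkers, and negative values can be taken as non-binding.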

[2] = target: GlcNAc(b1-2)Gal(b1-3)GalNAc
Summary of the method: as §1

[3] = target: GlcNAc(b1-2)Man(a1-3)[GlcNAc(b1-2)Man(a1-6)]Man(b1-4)GlcNAc(b1-4)GlcNAc
Summary of the method: as §1

[4] = target: GlcNAc(b1-2)Man(a1-3)[GlcNAc(b1-2)Man(a1-6)]Man(b1-4)GlcNAc(b1-4)[Fuc(a1-6)]GlcNAc
Summary of the method: as §1

[5] = target: GlcNAc(b1-2)Man(a1-3)[GlcNAc(b1-4)][GlcNAc(b1-2)Man(a1-6)]Man(b1-4)GlcNAc(b1-4)GlcNAc
Summary of the method: as §1

[6] = target: GlcNAc(b1-2)Man(a1-3)[GlcNAc(b1-4)][GlcNAc(b1-2)Man(a1-6)]Man(b1-4)GlcNAc(b1-4)[Fuc(a1-6)]GlcNAc
Summary of the method: as §1

[7] = target: GlcNAc(b1-2)[GlcNAc(b1-4)]Man(a1-3)[GlcNAc(b1-2)Man(a1-6)]Man(b1-4)GlcNAc(b1-4)GlcNAc
Summary of the method: as §1

[8] = target: GlcNAc(b1-2)[GlcNAc(b1-4)]Man(a1-3)[GlcNAc(b1-4)][GlcNAc(b1-2)Man(a1-6)]Man(b1-4)GlcNAc(b1-4)GlcNAc
Summary of the method: as §1

[9] = target: GlcNAc(b1-2)[GlcNAc(b1-4)]Man(a1-3)[GlcNAc(b1-4)][GlcNAc(b1-2)[GlcNAc(b1-6)]Man(a1-6)]Man(b1-4)GlcNAc(b1-4)GlcNAc
Summary of the method: as §1

[10] = target: GlcNAc(b1-2)[GlcNAc(b1-4)]Man(a1-3)[GlcNAc(b1-4)][GlcNAc(b1-2)[GlcNAc(b1-6)]Man(a1-6)]Man(b1-4)GlcNAc(b1-4)[Fuc(a1-6)]GlcNAc
Summary of the method: as §1

[11] = target: GlcNAc(b1-2)[GlcNAc(b1-6)]Man(a1-6)[GlcNAc(b1-2)Man(a1-3)]Man(b1-4)GlcNAc(b1-4)GlcNAc
Summary of the method: as §1

[12] = target: GlcNAc(b1-2)[GlcNAc(b1-6)]Man(a1-6)[GlcNAc(b1-2)Man(a1-3)]Man(b1-4)GlcNAc(b1-4)[Fuc(a1-6)]GlcNAc
Summary of the method: as §1

[13] = target: GlcNAc(b1-2)[GlcNAc(b1-6)]Man(a1-6)[GlcNAc(b1-4)][GlcNAc(b1-2)Man(a1-3)]Man(b1-4)GlcNAc(b1-4)GlcNAc
Summary of the method: as §1

GlcNAc(b1-3)Fuc = target: GlcNAc(b1-3)Fuc
Summary of the method: as §1

GlcNAc(b1-3)Gal = target: GlcNAc(b1-3)Gal
Summary of the method: as §1

[14] = target: GlcNAc(b1-3)Gal(b1-3)GalNAc
Summary of the method: as §1

GlcNAc(b1-3)Gal(b1-4)Glc = target: GlcNAc(b1-3)Gal(b1-4)Glc
Summary of the method: as §1

[15] = target: GlcNAc(b1-3)Gal(b1-4)GlcNAc
Summary of the method: as §1

[16] = target: GlcNAc(b1-3)Gal(b1-4)GlcNAc(b1-2)Man(a1-3)[GlcNAc(b1-3)Gal(b1-4)GlcNAc(b1-2)Man(a1-6)]Man(b1-4)GlcNAc(b1-4)GlcNAc
Summary of the method: as §1

[17] = target: GlcNAc(b1-3)Gal(b1-4)GlcNAc(b1-2)Man(a1-3)[GlcNAc(b1-3)Gal(b1-4)GlcNAc(b1-2)Man(a1-6)]Man(b1-4)GlcNAc(b1-4)[Fuc(a1-6)]GlcNAc
Summary of the method: as §1

[18] = target: GlcNAc(b1-3)Gal(b1-4)GlcNAc(b1-2)[GlcNAc(b1-3)Gal(b1-4)GlcNAc(b1-6)]Man(a1-6)[GlcNAc(b1-3)Gal(b1-4)GlcNAc(b1-2)Man(a1-3)]Man(b1-4)GlcNAc(b1-4)GlcNAc
Summary of the method: as §1

[19] = target: GlcNAc(b1-3)Gal(b1-4)GlcNAc(b1-3)Gal(b1-4)GlcNAc
Summary of the method: as §1

B1: Cp ZmpB (Clostridium perfringens), Q0TR08 (protein)
chain: MNKRKIAAIILATMITNLSATTIDVLAQELNTKNNSKVEVSHDDESHQARVSKFDLYNSDKLDAYNQEFQVSRSNIKSINNNGGKYNSSTIDKAIDGNLETHWETGKPNDANFTNEVVVTFNEITNIDRIVYSARRDSARGKGFAKEFEIYASLKDEGDDFNLVSSGEYTESTRDLVEIKFNPTDFKRLKFKFKKADQNWASAAEFMFYKEDKLNEKFNGLFTDSSMNKVSEEFNTLEKLNAFENELKDHPIYDLYKEGLNNARAILTETSENPTKATLGQITYNLNDDYNNQYRMPYKNIKAIKNNGRHYAAQNIEKAIDNDVNTYWETGTLNSSSFNNEVEVEFNDLVTLDRIVYGSRQSDLKGFAEEVYIYASRTSKGDTYKLVATGAHEATKGLVEAKFEPTEFKRVKFKFKKSKQNSATLNELMFYKPDEVYSSIPKLFTDGTMSELSEEFNSLEKINAFKEKAKNHPLYNDFNETIELAESLISNPRKEDVLELEMRGDSISEAKKRKVWNFQDWQITGLSARAGDKITVYVDVAEGDPTPTLLYKQSLTQHGGATSFQLKPGKNEITIPEINYESNGIPKDVIQGGDLFFTNYKSDSQKRAPKVRIEGASKYPVFILGKSDENEVMKELEAYVEKIKAEPKTTPNIFAVSSNKSLEFVQATYALDWYKKNNKTPKYTAEQWDQYIADAMGFWGFDNSKDVNSDFNFRIMPMVKNLSGGAFMNAGNGVIGIRPGNQDAILAANKGWGVAHELGHNFDTGGRTIVEVTNNMMPLFFESKYKTKTRITDQNIWENNTYPKVGLDDYSNNELYNKADSTHLAQLAPLWQLYLYDNTFYGKFERQFRERDFGNKNREDIYKSWVVAASDAMELDLTEFFARHGIRVDDKVKEDLAKYPKPDKKIYYLNDLAMNYKGDGFTENAKVSVSTSGSNGNIKLSFSVDDENKDNILGYEIRRDGKYVGFTSNDSFVDTKSNLDEDGVYVVTPYDRKLNTLNPIEVNALQPTLSVNPVITLALGEEFNEEEYIVAKDIKGNSLSESVKVKSSNVNTSKVGEYEVLYSLEDSKGNEYTKTSKVNVVSRKEYMSDLTPKQSSNGWGTVRKDKSISGGVIGLTRDGDFVDYNKGLGLHSNAEYVYDLEGKDYDYFESYVGVDKAMSSRPASSVIFKVLVDGEEKFNSGVMRSTTPQKYVKVDVKNAKELKLIVNDAGDGDSSDHASFGDAKLATLSSKPIIKGENLAYSMDEKVDLMKGITATDIEDGNITSKVQIKSSDFVEGKSGIFTVVYSVTDSDGLTSECSRTIAVTDKETQLSDLNWKSATIGSGSVRKDRAVSGNQIRLLNEDNSVETFAKGIGTHSYSEIVYNSEGYDIFDTWVGIDRHVADKKVSSVKFKVYVDGELKAETDVMRIDTPKKRLVVDVRNSKEIKLVVDVADNGNNWDHADWADAKFRNLAEYDASELNKAIEEAKKLDLNNYTEESSEALKNAISKGEEALLSKDKETINSALEELNKEMNSLVKVDLNAVINIPDKYLLKSIQNQLNKTGDITLGDMYSLTTLTLSGVEDLTGLENAKNLETLNMDYNEVKDLRPLSKLKKLNTLNAQEQFIAAGELKPSNGKVIGDSKVYNREGKNVAKTIRVVDKNGNTILEQDAKDEFTINTKDLSSGLYGVHVLFEDEGFSGVMFYLFNV
B1 was tested, and the “glycan array binding signal (z-score)” value [1] was -0.262, the “glycan array binding signal (z-score)” value [2] was 2.81 and the “glycan array binding signal (z-score)” value [3] was -0.371. The “glycan array binding signal (z-score)” value [4] was 0.042, the “glycan array binding signal (z-score)” value [5] was 0.044 and the “glycan array binding signal (z-score)” value [6] was -0.313. For the same binder, the “glycan array binding signal (z-score)” value [7] was 1.11, the “glycan array binding signal (z-score)” value [8] was -0.139 and the “glycan array binding signal (z-score)” value [9] was 0.169. The “glycan array binding signal (z-score)” value [10] was 0.038, the “glycan array binding signal (z-score)” value [11] was -0.399 and the “glycan array binding signal (z-score)” value [12] was -0.197. The “glycan array binding signal (z-score)” value [13] was -0.277, the “glycan array binding signal (z-score)” value (GlcNAc(b1-3)Fuc) was -0.252 and the “glycan array binding signal (z-score)” value (GlcNAc(b1-3)Gal) was -0.286. The “glycan array binding signal (z-score)” value [14] was -0.131, the “glycan array binding signal (z-score)” value (GlcNAc(b1-3)Gal(b1-4)Glc) was 0.174 and the “glycan array binding signal (z-score)” value [15] was -0.393. For the same binder, the “glycan array binding signal (z-score)” value [16] was -0.084, the “glycan array binding signal (z-score)” value [17] was -0.357 and the “glycan array binding signal (z-score)” value [18] was -0.319. The “glycan array binding signal (z-score)” value [19] was 0.253.
